Where a name gives a salt, the structure may show the parent alone. Read-outs that look alike come from different tables or passages of the source.
Assays:
[1] = test system: CD47 deficient (CD47 KO) Jurkat T cells; conditions: for AC50: read-out: AC50 (μM) CD47 KO, cell viability
[2] = test system: WT Jurkat cells; conditions: for AC50: read-out: AC50 (μM) WT
[3] = CD47 KO Jurkat T cells, 48 hours, 10^-9 to 10^-4 M, CellTiter-Glo
[4] = WT Jurkat cells, 48 hours, 10^-9 to 10^-4 M, CellTiter-Glo
[5] = difference CD47 KO minus WT Jurkat cells, 48 hours
[6] = CD47 KO Jurkat T cells, 48 hours

Row | Molecule | Maximal Response CD47 KO (RLU) [1, 3] | Maximal Response WT (RLU) [2, 4] | also measured
1 | CC(C)CC(=O)Nc1[nH]nc2c1CN(C(=O)C1CCN(C)CC1)C2(C)C [PHA-793887] | 33.85 RLU | 1.453 RLU | 
2 | Cc1ccc(CN2CCNCC2)cc1NC(=O)CNc1ccc(F)c(F)c1 [GW-791343] | 37.839 RLU | 3.378 RLU | Δ Maximal Response CD47KO-WT [1, 5]: 34.461
3 | CC(=O)NCC(=O)N1[C@@H]2CC[C@H]1c1ccc(Nc3ncc(C(F)(F)F)c(NC4CCC4)n3)cc12 [PF-03814735] | 25.285 RLU | 2.512 RLU | Δ Maximal Response CD47KO-WT [1, 5]: 22.773
4 | Cc1coc2c1C(=O)C(=O)c1c-2ccc2c(C)cccc12 [Tanshinone I] | 62.314 RLU | 23.03 RLU | Δ Maximal Response CD47KO-WT [1, 5]: 39.284
5 | O=C1[O][Pt]2([NH][C@@H]3CCCC[C@H]3[NH]2)[O]C1=O [Oxaliplatin] |  |  | Maximal Response CD47 KO (RLU) [1]: 109.492 RLU; Δ Maximal Response CD47KO-WT [1]: 60.093; sensitivity of CD47-expressing versus deficient Jurkat T cells ([1]; 48 hours): differing sensitivities; Maximal Response WT (RLU) [2]: 49.399 RLU
6 | C[C@]12C=CC(=O)C=C1CC[C@@H]1[C@@H]2[C@@H](O)C[C@@]2(C)[C@H]1CC[C@]2(O)C(=O)CO [Prednisolone] | 71.927 RLU | 43.795 RLU | 
7 | CN(C)c1ccc(O)c2c1C[C@H]1C[C@H]3[C@H](N(C)C)C(O)=C(C(N)=O)C(=O)[C@@]3(O)C(O)=C1C2=O [Minocycline] | 52.108 RLU | 7.169 RLU | 
8 | CC[C@]1(O)C[C@H]2CN(CCc3c([nH]c4ccccc34)[C@@](C(=O)OC)(c3cc4c(cc3OC)N(C=O)[C@H]3[C@@](O)(C(=O)OC)[C@H](OC(C)=O)[C@]5(CC)C=CCN6CC[C@]43[C@@H]65)C2)C1 [Vincristine sulfate] | 37.863 RLU | 9.981 RLU | 
9 | Cc1csc(-c2nnc(Nc3ccc(Oc4ncccc4-c4ccnc(N)n4)cc3)c3ccccc23)c1 [AMG-900] | 52.081 RLU | 26.057 RLU | 
10 | Cc1cc(Nc2cc(NC(=O)c3c(Cl)cccc3Cl)ccn2)nc(N)n1 [RO495] | 38.025 RLU | 13.348 RLU | Δ Maximal Response CD47KO-WT [1, 5]: 24.677
11 | C[C@H](NCc1ccc2c(c1)nc(NC(=O)c1ccc(-c3cn[nH]c3)s1)n2CCc1ccccc1)C(C)(C)C [NCGC00344999-01] |  |  | Δ LogAC50 CD47KO-WT ([1]; log AC50 difference CD47 KO minus WT): 1.3; AC50 [1, 6]: 2.64 µM; AC50 ([2]; WT Jurkat cells, cell viability, 48 hours): 0.132 µM
12 | C1COC(NC(C2CC2)C2CC2)=N1 [Rilmenidine] | 87.857 RLU | 56.878 RLU | 
13 | Nc1nc(F)nc2c1ncn2[C@@H]1O[C@H](COP(=O)(O)O)[C@@H](O)[C@@H]1O [Fludarabine phosphate] |  |  | Maximal Response CD47 KO (RLU) [1]: 46.884 RLU; Maximal Response WT (RLU) [2]: 12.348 RLU
14 | CC1(C)O[C@H]2CC(=O)OC[C@]23[C@H]2CC[C@@]4(C)[C@H](c5ccoc5)OC(=O)[C@H]5O[C@]54[C@]2(C)C(=O)C[C@@H]13 [Limonin] | 137.297 RLU | 106.306 RLU | 
15 | Cc1cc(Nc2ncc3c(n2)N(C)C(=O)N(c2cc(NC(=O)c4cccc(C(F)(F)F)c4)ccc2C)C3)n(C)n1 [Pluripotin] |  |  | Maximal Response CD47 KO (RLU) [1]: 85.4 RLU; Δ Maximal Response CD47KO-WT [1]: 26.442; Maximal Response WT (RLU) [2]: 58.958 RLU
16 | CC1CNc2c(cccc2S(=O)(=O)N[C@@H](CCCNC(=N)N)C(=O)N2CC[C@@H](C)C[C@@H]2C(=O)O)C1 (some centres unmarked) [Argatroban] | 92.128 RLU | 64.584 RLU | 
17 | CCCCCN(C)CCC(O)(P(=O)(O)O)P(=O)(O)O [Ibandronate sodium hydrate] | 127.096 RLU | 103.48 RLU | 
18 | COc1c(C)c2c(c(O)c1C/C=C(\C)CCC(=O)O)C(=O)OC2 [Mycophenolic acid] | 58.678 RLU | 19.34 RLU | 

Row | Molecule | Maximal Response CD47 KO (RLU) [1, 3] | Maximal Response WT (RLU) [2, 4] | also measured
19 | C[C@H]1COC2=C1C(=O)C(=O)c1c2ccc2c1CCCC2(C)C [Cryptotanshinone] |  |  | Maximal Response CD47 KO (RLU) [1]: 31.687 RLU; Maximal Response WT (RLU) [2]: 5.548 RLU
20 | CCS(=O)(=O)c1cccc(-c2cc(C(=O)NC3CCN(C)CC3)c(C)c3[nH]c4ncc(C)cc4c23)c1 [TAK-901] | 33.892 RLU | 4.465 RLU | 
21 | CCN(c1ccccc1)c1cc(NC)[n+](C)c(C)n1.[Cl-] [ICI-D7288] | 27.963 RLU | 5.518 RLU | Δ Maximal Response CD47KO-WT [1, 5]: 22.445
22 | Cc1ccc2nc(NCCN)c3ncc(C)n3c2c1 [BMS-345541] | 23.272 RLU | 1.923 RLU | 
23 | CC(C)[C@H]1CC[C@H](C(=O)N[C@H](Cc2ccccc2)C(=O)O)CC1 [Nateglinide] | 111.519 RLU | 76.528 RLU | 
24 | O=C(Nc1cc(Cl)cc2c1[nH]c1cnccc12)c1cccnc1 [PS-1145] | 97.256 RLU | 67.733 RLU | Δ Maximal Response CD47KO-WT [1, 5]: 29.523
25 | COc1ccc(/C=C\c2cc(OC)c(OC)c(OC)c2)cc1O [Combretastatin A-4] |  |  | Maximal Response CD47 KO (RLU) [1]: 36.125 RLU; Δ Maximal Response CD47KO-WT [1]: 23.243; Maximal Response WT (RLU) [2]: 12.882 RLU
26 | CN(C)c1ccc(C(=C2C=CC(=[N+](C)C)C=C2)c2ccc(N(C)C)cc2)cc1.[Cl-] [Methylrosaniline chloride] |  |  | Δ LogAC50 CD47KO-WT [1]: 0.75; AC50 [1, 6]: 1.32 µM; AC50 [2]: 0.235 µM
27 | COc1ccc(F)c(F)c1C(=O)c1cnc(NC2CCN(S(C)(=O)=O)CC2)nc1N [R-547] | 36.61 RLU | 3.1 RLU | Δ Maximal Response CD47KO-WT [1, 5]: 33.51
28 | CN(C)CCc1c[nH]c2ccc(Cn3cncn3)cc12 [Rizatriptan benzoate] | 83.76 RLU | 62.211 RLU | 
29 | CN1C(C(=O)Nc2ccccn2)=C(O)c2ccccc2S1(=O)=O [Piroxicam] | 106.754 RLU | 80.791 RLU | 
30 | Antimycin A | 46.04 RLU | 24.41 RLU | Δ Maximal Response CD47KO-WT [1, 5]: 21.63
31 | AZD-5363 |  |  | Maximal Response WT (RLU) [2]: 1.231 RLU; AC50 [2]: 0.166 µM
32 | O[C@@H](COc1cccc2ncccc12)CN1CCN([C@@H]2c3ccccc3[C@@H]3[C@H](c4ccccc42)C3(F)F)CC1 [Zosuquidar trihydrochloride] |  | 17.315 RLU | 
33 | COc1cccc2c1C(=O)c1c(O)c3c(c(O)c1C2=O)C[C@@](O)(C(=O)CO)C[C@@H]3O[C@H]1C[C@H](N)[C@H](O)[C@H](C)O1 [Doxorubicin] | 61.232 RLU |  | 
34 | COC(=O)C1=C(C)NC(C)=C(C(=O)OCCCN2CCC(c3ccccc3)(c3ccccc3)CC2)[C@H]1c1cccc([N+](=O)[O-])c1 [Niguldipine] |  |  | Maximal Response WT (RLU) [2]: 102.048 RLU
35 | C/C=C/C[C@@H](C)C(=O)[C@H]1C(=O)N[C@@H](C(C)C)C(=O)N(C)CC(=O)N(C)[C@@H](CC(C)C)C(=O)N[C@@H](C(C)C)C(=O)N(C)[C@@H](CC(C)C)C(=O)N[C@@H](C)C(=O)N[C@H](C)C(=O)N(C)[C@@H](CC(C)C)C(=O)N(C)[C@@H](CC(C)C)C(=O)N(C)[C@@H](C(C)C)C(=O)N1C [Valspodar] |  | 56.155 RLU | 
